Measurements as given in the supplement of paper PMC12067230.
This is a noisy data set.
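Further: [psi-pin-] Saccharomyces cerevisiae expressing SupN fusions, induced by 100 µM Cu2SO4, selected 7 d at 30 °C without adenine and uracil, scored by deep sequencing of output versus input.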

Test: amyloid nucleation score relative to library mode (yeast Sup35 reporter selection) (log enrichment difference); higher = more amyloid nucleation; sequences are the first 22 residues of the Bri2 peptide extended by up to 12 random residues
Conditions: random library (experiment): 2;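 active = nucleation score significantly above 0 at FDR 0.05; inactive = not significantly above 0 or absent from output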
Protocol: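 Random C-terminal extensions of the 22-aa Bri2 peptide by 12 NNK codons; premature stops give shorter extensions. Peptides were fused to the Sup35 nucleation domain in S. cerevisiae [psi-pin-] and selected on -ADE-URA plates for 7 d at 30 °C. The nucleation score is log(output/input), centred to the mode of each of 3 independent libraries (1 input, 3 technical output replicates), with duplicates merged. Sequences absent from the output ('random_non_nuc') were imputed with the library mode value, so they are given as censored (<). Nucleators are scores significantly >0 at FDR 0.05.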
With EASNCFAIRHFENKFAVETLICHILFVHFSRTLK the amyloid nucleation score was “inactive”.
EASNCFAIRHFENKFAVETLICVFAFILGGTSAH showed an amyloid nucleation score of 0.844.
With EASNCFAIRHFENKFAVETLICLSMRLS the amyloid nucleation score was “inactive”.
EASNCFAIRHFENKFAVETLICLCEAGKWSRCGR gave an amyloid nucleation score of 4.52.
In the case of EASNCFAIRHFENKFAVETLICLFSMVTGFGNEL, the amyloid nucleation score is reported as -0.0953.
In the case of EASNCFAIRHFENKFAVETLICVMELL, the amyloid nucleation score is reported as “inactive”.
Work on EASNCFAIRHFENKFAVETLICFYN yielded an amyloid nucleation score of 5.18.
In the case of EASNCFAIRHFENKFAVETLICRTVSYF, the amyloid nucleation score is reported as “inactive”.
For EASNCFAIRHFENKFAVETLICQSFSCYGIYVSS, the amyloid nucleation score was 2.05.
With EASNCFAIRHFENKFAVETLICREDGDFLDRNCM the amyloid nucleation score was “inactive”.
Sequence EASNCFAIRHFENKFAVETLICHFGYGRY has an amyloid nucleation score of 5.14.
Work on EASNCFAIRHFENKFAVETLICCAKQYLIYPEAC yielded an amyloid nucleation score of 4.5.
In the case of EASNCFAIRHFENKFAVETLICIHRCFIAFVFYQ, the amyloid nucleation score is reported as “inactive”.
In the case of EASNCFAIRHFENKFAVETLICIEWNRYGCDWVR, the amyloid nucleation score is reported as “inactive”.
For EASNCFAIRHFENKFAVETLICVRFTFFTVLLLQ, the amyloid nucleation score was “inactive”.
With EASNCFAIRHFENKFAVETLICDIWDTWKRIVLS the amyloid nucleation score was “inactive”.
In the case of EASNCFAIRHFENKFAVETLICCSFSARRVLRST, the amyloid nucleation score is reported as 7.05.
For EASNCFAIRHFENKFAVETLICRTFCHK, the amyloid nucleation score was 1.97.
Sequence EASNCFAIRHFENKFAVETLICMLLRERVARVAP has an amyloid nucleation score of -0.315.
In the case of EASNCFAIRHFENKFAVETLICAFGSIRGSMDSG, the amyloid nucleation score is reported as 3.13.
In the case of EASNCFAIRHFENKFAVETLICDLLSTLVKRTGC, the amyloid nucleation score is reported as “inactive”.
Sequence EASNCFAIRHFENKFAVETLICFLYKCYSRMFQG has an amyloid nucleation score of 0.301.
For EASNCFAIRHFENKFAVETLICRISQGLSEVFSA, the amyloid nucleation score was “inactive”.
In the case of EASNCFAIRHFENKFAVETLICNHSMMLHWSGLV, the amyloid nucleation score is reported as “inactive”.
For EASNCFAIRHFENKFAVETLICFIWPINLVLWYR, the amyloid nucleation score was “inactive”.
With EASNCFAIRHFENKFAVETLICLSRCAQWSRWTA the amyloid nucleation score was “inactive”.
For EASNCFAIRHFENKFAVETLICTTEFGERSASSV, the amyloid nucleation score was “inactive”.

Same assay, conditions: random library (experiment): 3
In the case of EASNCFAIRHFENKFAVETLICLKDSN, the amyloid nucleation score is reported as “inactive”.
For EASNCFAIRHFENKFAVETLICWWMFRI, the amyloid nucleation score was “inactive”.
In the case of EASNCFAIRHFENKFAVETLICRCPYGCWLIGGA, the amyloid nucleation score is reported as “inactive”.
For EASNCFAIRHFENKFAVETLICGYVAWVWRSWRR, the amyloid nucleation score was “inactive”.
In the case of EASNCFAIRHFENKFAVETLICRYGENGGSPT, the amyloid nucleation score is reported as “inactive”.
Work on EASNCFAIRHFENKFAVETLICCAAVLSYLHDVR yielded an amyloid nucleation score of 5.77.
With EASNCFAIRHFENKFAVETLICRQLRISVSSLWE the amyloid nucleation score was “inactive”.
EASNCFAIRHFENKFAVETLICCSLATSHNCDVL gave an amyloid nucleation score of 8.83.
For EASNCFAIRHFENKFAVETLICTHGEWRR, the amyloid nucleation score was 3.11.
For EASNCFAIRHFENKFAVETLICRTRNVLPMRDLV, the amyloid nucleation score was -0.103.
In the case of EASNCFAIRHFENKFAVETLICFVIFLLCMLMPM, the amyloid nucleation score is reported as “inactive”.
In the case of EASNCFAIRHFENKFAVETLICCSQ, the amyloid nucleation score is reported as 7.85.
For EASNCFAIRHFENKFAVETLICGSAAKPGVDVLD, the amyloid nucleation score was “inactive”.
With EASNCFAIRHFENKFAVETLICCEPDLARQTTWG the amyloid nucleation score was 0.749.
In the case of EASNCFAIRHFENKFAVETLICCQECNKVTPGIT, the amyloid nucleation score is reported as “inactive”.
For EASNCFAIRHFENKFAVETLICGERASLRRVHTS, the amyloid nucleation score was “inactive”.
Sequence EASNCFAIRHFENKFAVETLICCKS has an amyloid nucleation score of 0.244.
With EASNCFAIRHFENKFAVETLICFWYAQSLFWRWH the amyloid nucleation score was “inactive”.
EASNCFAIRHFENKFAVETLICARQSPKTSMIRF showed an amyloid nucleation score of 0.714.
With EASNCFAIRHFENKFAVETLICVASRSPD the amyloid nucleation score was “inactive”.
With EASNCFAIRHFENKFAVETLICRVKFSMFMIEIW the amyloid nucleation score was “inactive”.
For EASNCFAIRHFENKFAVETLICREVDRQGRLSKR, the amyloid nucleation score was 3.42.
In the case of EASNCFAIRHFENKFAVETLICMCACRCSMILIW, the amyloid nucleation score is reported as “inactive”.
Sequence EASNCFAIRHFENKFAVETLICFVFGDRAHVVEE has an amyloid nucleation score of 8.01.
Work on EASNCFAIRHFENKFAVETLICLKRNRYVFGAMC yielded an amyloid nucleation score of -0.166.
For EASNCFAIRHFENKFAVETLICARPCHRCDTCGR, the amyloid nucleation score was 0.59.
EASNCFAIRHFENKFAVETLICGVGWEIAETWYT showed an amyloid nucleation score of 2.49.
For EASNCFAIRHFENKFAVETLICRTSLFQVKGEGR, the amyloid nucleation score was “inactive”.
With EASNCFAIRHFENKFAVETLICFAISSLVTWMCG the amyloid nucleation score was “inactive”.
In the case of EASNCFAIRHFENKFAVETLICLSSDDTFYSVLA, the amyloid nucleation score is reported as “inactive”.
For EASNCFAIRHFENKFAVETLICYVAYDLQMWTGM, the amyloid nucleation score was “inactive”.
